Screen size: about 420,000 compounds; about 50,000 (12%) were called active. The inconclusive results got no clear call from the source; some entries with a clear call stand among them for comparison. The call rests on the fitted dose curve; in most records, active means well fitted inhibition curve with a large enough effect; inconclusive means small, poorly fitted or top-dose-only effect; inactive means flat fitted curve, though single readings scatter. No potency is given beside an inconclusive call; the fits are too rough.
Assay: qHTS for Inhibitors of human tyrosyl-DNA phosphodiesterase 1 (TDP1): qHTS in cells in presence of CPT; further: nearly all actives have a fitted effect of over 55% in size
Conditions: chicken DT40 Tdp1-/-;hTDP1 cells + 20 nM CPT, ATP luminescence, 48 h; activity change, negative = growth inhibition: at 46.2 µM (top of the series) unless noted
In short: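 Cell growth measured by CellTiter-Glo luminescence after a minimum 48 h, 37 C compound exposure with 20 nM CPT in Tdp1-knockout DT40 cells stably expressing hTDP1, seeded 400/well; qHTS titration format.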
On the % scale 0 is the no-effect control and ±100 the full control effect; potency means the concentration at half of the fitted maximal effect; tags describe the fitted curve by direction and shape.

Row | Compound | Potency | activity change, negative = growth inhibition
1 | CCCn1c(=O)n(-c2ccccc2Cl)c(=O)c2sc3ccccc3c21 | inconclusive [inhibitor, partial curve] | –
2 | Cc1cc(C)c(NC(=O)Cn2nc(-c3ccncc3)ccc2=O)c(C)c1 | inactive | –
3 | Cc1ccccc1-c1cc2c(nn1)-c1ccccc1C2=O | inconclusive [inhibitor, single point] | –
4 | O=c1[nH]c(SCCOc2ccccc2F)nc2ccccc12 | inactive | –
5 | CCN(CC(=O)NCc1ccc(Cl)cc1)C(=O)CSc1cccc(C(F)(F)F)c1 | active: 18.4 µM | –
6 | COc1ccc(-c2ccc3c(N)c(C(=O)Nc4ccc(C(F)(F)F)cc4)sc3n2)cc1OC | inconclusive [inhibitor, single point] | –
7 | CCc1c(C)nc2ncnn2c1N1CCCC(C(=O)NCCc2ccc(OC)cc2)C1 (configuration not stated) | inconclusive [inhibitor, single point] | –
8 | Cn1nc(C(=O)NNC(=O)CCc2ccccc2Cl)c2ccccc2c1=O | inactive | –
9 | COc1cc(/C=N/NC(=O)CC#N)cc(Br)c1O | inconclusive [inhibitor, single point] | –
10 | CN(c1ccccc1)S(=O)(=O)c1ccc(C(=O)NCc2ccccc2CN2CCCC2)cc1 | inconclusive [inhibitor, single point] | –
11 | Cc1cc(F)ccc1NC(=O)C1CSC2(C)CCC(=O)N12 (configuration not stated) | inactive | –
12 | COc1ccc(C(=O)Nc2ccccc2Cc2ccccc2)c(OC)c1 | active: 18.4 µM | –
13 | CC(C)(C)OC(=O)N(CCc1ccccc1)Cc1cccc(OCc2cccc(NC(=O)c3ccccc3)c2)c1 | active: 23.1 µM | –
14 | CCC(SC1=N/C(=C/c2ccccc2OC)C(=O)N1c1ccccc1)C(=O)Nc1cc(C)on1 (configuration not stated) | active: 11.6 µM | –
15 | Cc1ccc(Cl)cc1NC(=O)C(Cc1ccccc1)NS(=O)(=O)c1cccc2nsnc12 (configuration not stated) | inconclusive [inhibitor, single point] | –
16 | COc1cccc(CN=c2c([N+](=O)[O-])nn(-c3ccccc3C)n2O)c1 | active: 23.1 µM | –
17 | COc1ccc(C2(C(=O)NCCc3ccccc3)CCCC2)cc1 | inconclusive [inhibitor, single point] | –
18 | C=CCC[C@H](Cc1ccc(F)cc1)C(=O)OC[C@H](C)NC(=O)[C@H](CC=C)CC(=O)NCCO | – | inconclusive: -30.8% [inhibitor]
19 | Cc1coc2c(C)c3oc(=O)c(CCC(=O)NCc4ccccn4)c(C)c3cc12 | inconclusive [inhibitor, single point] | –
20 | CCN(C(=O)CSc1ncc2c(n1)-c1cc(Cl)ccc1N(Cc1ccccc1)S2(=O)=O)c1cccc(C)c1 | inconclusive [inhibitor, single point] | –
21 | CCOc1ccc(Br)cc1C1C(C(=O)OC)=C(C)NC2=C1C(=O)c1ccccc12 (configuration not stated) | inconclusive [inhibitor, single point] | –
22 | COc1cc(CNC(C)(C)CO)ccc1OCC(=O)Nc1ccc(Br)cc1 | inconclusive [inhibitor, single point] | –
23 | CC(C)N1C/C(=C/c2cccnc2)C(=O)/C(=C/c2cccnc2)C1 | active: 1.64 µM | –

Row | Compound | Potency | activity change, negative = growth inhibition
24 | CC(=O)c1cc(-c2ccccc2)n(CC(=O)Nc2cccc(C)c2)c1C | active: 18.4 µM | –
25 | COc1ccc(-c2nc3cnccn3c2Nc2ccc(C)cc2)cc1 | active: 14.6 µM | –
26 | CCOC(=O)c1csc(NC(=O)C2CCCCC2)n1 | inactive | –
27 | COc1ccc(C)cc1NC(=O)c1c2c(nc3ccccc13)C(=O)N(C1CCCCC1)C2 | active: 16.4 µM | –
28 | CC(C)(C)SCCNS(=O)(=O)c1ccc2ccccc2c1 | inconclusive [inhibitor, single point] | –
29 | COc1ccc(CCNC2CCC(c3ccccc3)CC2)cc1 (configuration not stated) | inactive | –
30 | CN(C)c1ccc(C=O)c(Cl)c1 | inactive | –
31 | Cc1ccc(-c2nnc(SCC(=O)Nc3cccc(C(=O)N4CCOCC4)c3)n2C)cc1 | inconclusive [inhibitor, single point] | –
32 | COc1ccc2c(c1)O[C@@H](c1cccc(C(F)(F)F)c1)[C@H](OC(=O)Nc1ccc(OC(F)F)cc1)C2=O | inconclusive [inhibitor, single point] | –
33 | CCSc1nc2ccccc2n1CCOc1ccccc1 | inconclusive [inhibitor, single point] | –
34 | S=c1[nH]nc(COc2ccccc2)n1/N=C/C=C/c1ccco1 | inactive | –
35 | COc1ccc(N2C(=O)CC(NNc3ncc(Cl)cc3Cl)C2=O)cc1 (configuration not stated) | active: 14.6 µM | –
36 | COc1ccccc1C(=O)N/C(=C\c1ccc2c(c1)OCO2)C(=O)NCCc1nc2ccccc2[nH]1 | inconclusive [inhibitor, partial curve] | –
37 | Cc1ccc(-c2nc3ccc(C(=O)O)cc3nc2-c2ccc(C)cc2)cc1 | inconclusive [inhibitor, single point] | –
38 | COc1ccc(OC)c(C2Nc3c(C)cc(C)cc3-c3cc(C)nn32)c1 (configuration not stated) | active: 16.4 µM | –
39 | CCc1c(C)sc2c1CCN(C(=O)Nc1ccccc1C(=O)OC)C2c1ccc(OC)cc1 (configuration not stated) | inconclusive [inhibitor, single point] | –
40 | CCN(CC)C(=O)c1cccc(-c2csc(C(O)c3cccc(OC)c3)n2)c1 (configuration not stated) | active: 23.1 µM | –
41 | C=CCSc1nc(C)cc(/C=C\c2ccccc2)c1C#N | inactive | –
42 | Cc1cccc(C(=O)OCC(=O)NC(C)C2CC3CCC2C3)c1O (configuration not stated) | inconclusive [inhibitor, single point] | –
43 | O=C(NCCCN1CCc2ccccc2C1)Nc1ccc(Br)cc1 | inconclusive [inhibitor, single point] | –
44 | COc1ccccc1CN1CCC2(CCNCC2)CC1 | inconclusive [inhibitor, single point] | –
45 | Cc1ccc(Cl)cc1N1CCN(C(=O)c2cc3ccc4cccnc4c3[nH]2)CC1 | inconclusive [inhibitor, single point] | –
46 | CC(C)c1ccc(C2=CC(c3cccc(Cl)c3)n3c(nc4ccccc43)N2)cc1 (configuration not stated) | inconclusive [inhibitor, single point] | –

Row | Compound | Potency | activity change, negative = growth inhibition
47 | CCC(CC)(CC(=O)Nc1cccc(/C=C/c2nc(C3CCC3)cs2)c1)C(=O)O | inactive | –
48 | Cc1ccc2[nH]c(C(=O)N3CCC(C(N)=O)CC3)cc2c1 | inactive | –
49 | CC(C)=CCC[C@H](C)C[C@@H]1Cc2[nH]c(=S)[nH]c(=O)c2[C@@H](c2ccc(F)cc2)O1 | inconclusive [inhibitor, single point] | –
50 | CCn1c(=O)cc(OCC(=O)N(C)c2ccc(OC)cc2)c2ccccc21 | inconclusive [inhibitor, partial curve] | –
51 | CCNC(=O)OCCC12CC3CC(CC(C3)C1)C2 | inconclusive [inhibitor, single point] | –
52 | COC(=O)[C@]12CCCCC=C1N(CCC1=CCCCC1)C(=O)[C@H](CC(=O)N1CCOCC1)C2 | inconclusive [inhibitor, single point] | –
53 | FC(F)(F)COc1nc(N2CCOCC2)nc(N(c2ccccc2)c2ccccc2)n1 | inconclusive [inhibitor, single point] | –
54 | O=[N+]([O-])c1ccccc1OC/C(=N\O)c1ccccc1 | inconclusive [inhibitor, single point] | –
55 | CCOc1ccc(NC(=O)CN2C(=O)C(c3ccc(Cl)cc3)=NC2(C)C)cc1 | inconclusive [inhibitor, single point] | –
56 | O=C(NCc1ccc(Cl)cc1)C1=Cc2cc(Br)ccc2OC1 | inconclusive [inhibitor, single point] | –
57 | Cc1ccccc1NC(=O)c1sc2nc[nH]c(=O)c2c1C | inconclusive [inhibitor, full curve] | –
58 | CCN(C(=O)COc1ccc(N(C)S(=O)(=O)c2ccc(NC(C)=O)cc2)cc1)C1CCCCC1 | inconclusive [inhibitor, single point] | –
59 | Oc1cccc(/C=N/N=C/c2cccc(O)c2O)c1O | inconclusive [inhibitor, single point] | –
60 | Cc1ccc(S(=O)(=O)N2[C@@H](c3ccc(Cl)cc3)C(C(=O)O)=C[C@H]2CC2CCCC2)cc1 | inconclusive [inhibitor, partial curve] | –
61 | COc1ccc(-c2nc(CN3CCC(C(=O)NC4CCCc5ccccc54)CC3)c(C)o2)cc1OC (configuration not stated) | inconclusive [inhibitor, single point] | –
62 | Cc1cccc([C@@H]2[C@@H]3C(=O)N(Cc4ccccc4)C(=O)[C@@H]3[C@]3(Cc4ccc(Cl)cc4)C(=O)N(c4cccc(Br)c4)C(=O)N23)c1 | inconclusive [inhibitor, single point] | –
63 | CC(=O)Nc1cc(-c2cccc(F)c2)cn2c(-c3ccc(F)c(Cl)c3)cnc12 | inconclusive [inhibitor, single point] | –
64 | NC(=S)Cc1nc(-c2ccc(Cl)cc2)cs1 | inconclusive [inhibitor, single point] | –
65 | COc1ccc(-c2ccc(CN3C(C(C)C)C(=O)N(Cc4cn(CC5CCCCC5)nn4)CCS3(=O)=O)cc2)cc1OC (configuration not stated) | inconclusive [inhibitor, partial curve, poor fit] | –
66 | CS(=O)(=O)N(CC(=O)Nc1ccc(Br)cc1F)C1CCCCC1 | inconclusive [inhibitor, single point] | –
67 | CCc1cc(C(=O)c2ccc(Br)cc2)c(NC(=O)CN(CC)CC)s1 | inconclusive [inhibitor, partial curve, poor fit] | –

Source: PubChem BioAssay AID686979 (National Center for Advancing Translational Sciences (NCATS), 2013)
